Our source for the binding signal (RPM ratio (pull-down/input)) values is article PMC12820563.

The other results are listed elsewhere or left out. The list includes weakly bound sequences.

The test concerns the target T1, MBP-FoxP3dN (UniProt Q99JB6).
T1 sequence: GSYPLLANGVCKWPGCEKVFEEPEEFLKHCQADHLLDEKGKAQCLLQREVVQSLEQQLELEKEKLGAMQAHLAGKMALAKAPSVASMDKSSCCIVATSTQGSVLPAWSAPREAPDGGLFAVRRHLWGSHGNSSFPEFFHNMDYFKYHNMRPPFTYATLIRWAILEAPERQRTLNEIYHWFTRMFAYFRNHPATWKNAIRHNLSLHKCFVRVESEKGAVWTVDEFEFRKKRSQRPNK
The experiment in a line: PD-seq (MBP pull-down with sequencing). Conditions: 20 mM Tris-HCl pH 7.5, 100 mM NaCl, 1.5 mM MgCl2, 0.4 uM protein, 0.1 uM dsDNA library, 30 min, room temperature, amylose pull-down; high values mean tight binding; double strand, one strand shown.
Consider “GATGATTGTTCTCCCAGCTGATGAATTGTTGGACTCGAGTAAACAAATTTTCCTAATCTTTCTGTTCAAGCGCCATCTAC”, for which the binding signal (RPM ratio (pull-down/input)) is 0.611.
The value for “GATGATTGTTCTCCCAGCTGATGAATTGCCCATGTCGAGTAAACAAATTTTCCTAATCTTTCTGTTCAAGCGCCATCTAC” was 0.577; that for “GATGATTGTTCTCCCAGCTGATGAATTACAGCAATCGAGTAAACAAATTTTCCTAATCTTTCTGTTCAAGCGCCATCTAC” was 1.85.
The value for “GATGATTGTTCTCCCAGCTGATGAATTCATCGTTTCGAGTAAACAAATTTTCCTAATCTTTCTGTTCAAGCGCCATCTAC” was 0.96.
With “GATGATTGTTCTCCCAGCTGATGAATTCGCTGGCTCGAGTAAACAAATTTTCCTAATCTTTCTGTTCAAGCGCCATCTAC” the figure was 0.441; with “GATGATTGTTCTCCCAGCTGATGAATTCGATAGATCGAGTAAACAAATTTTCCTAATCTTTCTGTTCAAGCGCCATCTAC”, 0.348.
Regarding “GATGATTGTTCTCCCAGCTGATGAATTGCTGGATTCGAGTAAACAAATTTTCCTAATCTTTCTGTTCAAGCGCCATCTAC”, the binding signal (RPM ratio (pull-down/input)) is 0.456.
With “GATGATTGTTCTCCCAGCTGATGAATTTCCGTTATCGAGTAAACAAATTTTCCTAATCTTTCTGTTCAAGCGCCATCTAC” the figure was 0.615; with “GATGATTGTTCTCCCAGCTGATGAATTTGACTTCTCGAGTAAACAAATTTTCCTAATCTTTCTGTTCAAGCGCCATCTAC”, 0.65.
With “GATGATTGTTCTCCCAGCTGATGAATTTCGTTGATCGAGTAAACAAATTTTCCTAATCTTTCTGTTCAAGCGCCATCTAC” the figure was 1.72; with “GATGATTGTTCTCCCAGCTGATGAATTTCCGACATCGAGTAAACAAATTTTCCTAATCTTTCTGTTCAAGCGCCATCTAC”, 0.414.
The value for “GATGATTGTTCTCCCAGCTGATGAATTCGACAGATCGAGTAAACAAATTTTCCTAATCTTTCTGTTCAAGCGCCATCTAC” was 0.181; that for “GATGATTGTTCTCCCAGCTGATGAATTAAGCCAATCGAGTAAACAAATTTTCCTAATCTTTCTGTTCAAGCGCCATCTAC” was 0.556.
In the case of “GATGATTGTTCTCCCAGCTGATGAATTCCCGCAGTCGAGTAAACAAATTTTCCTAATCTTTCTGTTCAAGCGCCATCTAC”, the binding signal (RPM ratio (pull-down/input)) was determined as 0.397.
The value for “GATGATTGTTCTCCCAGCTGATGAATTCAGGCCCTCGAGTAAACAAATTTTCCTAATCTTTCTGTTCAAGCGCCATCTAC” was 0.381.
Regarding “GATGATTGTTCTCCCAGCTGATGAATTTTTGATATCGAGTAAACAAATTTTCCTAATCTTTCTGTTCAAGCGCCATCTAC”, the binding signal (RPM ratio (pull-down/input)) was found to be 0.496.
For “GATGATTGTTCTCCCAGCTGATGAATTGGGTTACTCGAGTAAACAAATTTTCCTAATCTTTCTGTTCAAGCGCCATCTAC”, the binding signal (RPM ratio (pull-down/input)) is 0.979.
As for “GATGATTGTTCTCCCAGCTGATGAATTAGAATTCTCGAGTAAACAAATTTTCCTAATCTTTCTGTTCAAGCGCCATCTAC”, the binding signal (RPM ratio (pull-down/input)) came to 0.556.
With “GATGATTGTTCTCCCAGCTGATGAATTGTACGATTCGAGTAAACAAATTTTCCTAATCTTTCTGTTCAAGCGCCATCTAC” the figure was 0.373.
Turning to “GATGATTGTTCTCCCAGCTGATGAATTGCTCGGCTCGAGTAAACAAATTTTCCTAATCTTTCTGTTCAAGCGCCATCTAC”, the binding signal (RPM ratio (pull-down/input)) was determined as 0.337.
With “GATGATTGTTCTCCCAGCTGATGAATTGGATCGTTCGAGTAAACAAATTTTCCTAATCTTTCTGTTCAAGCGCCATCTAC” the figure was 0.402.
The value for “GATGATTGTTCTCCCAGCTGATGAATTAATGTTCTCGAGTAAACAAATTTTCCTAATCTTTCTGTTCAAGCGCCATCTAC” was 1.56.
The value for “GATGATTGTTCTCCCAGCTGATGAATTACGCGGGTCGAGTAAACAAATTTTCCTAATCTTTCTGTTCAAGCGCCATCTAC” was 0.637.
As to “GATGATTGTTCTCCCAGCTGATGAATTCTAAGTATCGAGTAAACAAATTTTCCTAATCTTTCTGTTCAAGCGCCATCTAC”, the binding signal (RPM ratio (pull-down/input)) worked out at 0.47.
The value for “GATGATTGTTCTCCCAGCTGATGAATTGAGTTCTTCGAGTAAACAAATTTTCCTAATCTTTCTGTTCAAGCGCCATCTAC” was 0.656.
The value for “GATGATTGTTCTCCCAGCTGATGAATTTTATGACTCGAGTAAACAAATTTTCCTAATCTTTCTGTTCAAGCGCCATCTAC” was 0.491; that for “GATGATTGTTCTCCCAGCTGATGAATTTGGCCTCTCGAGTAAACAAATTTTCCTAATCTTTCTGTTCAAGCGCCATCTAC” was 5.4.
In the case of “GATGATTGTTCTCCCAGCTGATGAATTCGTATCCTCGAGTAAACAAATTTTCCTAATCTTTCTGTTCAAGCGCCATCTAC”, the binding signal (RPM ratio (pull-down/input)) was 1.65.
As to “GATGATTGTTCTCCCAGCTGATGAATTCCTATAATCGAGTAAACAAATTTTCCTAATCTTTCTGTTCAAGCGCCATCTAC”, the binding signal (RPM ratio (pull-down/input)) was determined as 0.305.
Regarding “GATGATTGTTCTCCCAGCTGATGAATTTTGATTATCGAGTAAACAAATTTTCCTAATCTTTCTGTTCAAGCGCCATCTAC”, the binding signal (RPM ratio (pull-down/input)) was 4.43.
With “GATGATTGTTCTCCCAGCTGATGAATTATGTCCCTCGAGTAAACAAATTTTCCTAATCTTTCTGTTCAAGCGCCATCTAC” the figure was 1.75.
With “GATGATTGTTCTCCCAGCTGATGAATTGGATACATCGAGTAAACAAATTTTCCTAATCTTTCTGTTCAAGCGCCATCTAC” the figure was 0.808.
